# Results as given in the supplement of paper PMC11417369.
# ± gives the standard deviation of the averaged measurements. This is one part of the list.
# Test system: PfAP2-I AP2 domain 3 (GST-tagged)
# Experiment: gcPBM binding intensity (ln(normalized median fluorescence intensity)); higher = stronger DNA binding
# Method in brief: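 Binding intensity is the highest Masliner-normalised natural-log median intensity over replicate spots in either probe orientation. To obtain it, GST-tagged P. falciparum DNA-binding domains made in E. coli were incubated for 1 h on an Agilent 4 × 180k array of primer-extended double-stranded 36-bp intergenic genomic probes plus negative controls. Detection used Alexa488 anti-GST antibody with scanning at 488 nm.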
row,Sequence,gcPBM binding intensity (ln)
1,GGTGGGGAGGAGTAATGTACAAATTAACATATTATG [XGTACX_site6666],9.38 ± 0.13
2,TTCTTACATGAGTGTACACACTTTTTTTCAGAAAAT [CACACA_site4215],8.39 ± 0.67
3,AATAGTCGGGTGCATACACACCTTAAATATAATATA [CACACA_site8271],10.3 ± 0.55
4,TTATAAAATATTTATGCATGTGAAGAATATTATAAA [TGCATGCA_site1047],8.42 ± 0.34
5,GAAAAAAGTATCAAGGTGCGTATATACATCAAAATA,9.64 ± 0.028
6,ATATCATTTTCCTGCACACATAAATTTATATAATAT [CACACA_site1048],9.45 ± 0.38
7,ACACATAAATGAATAAATAAATAAATATAAATATAA [CACACA_negctrl_site1784],7.46 ± 0.35
8,AAAAGAACAATGAAGTGTACTAATAATTATTTATGT [XGTACX_site6649],8.09 ± 0.45
9,TTTTATCATCTTTTTACATTATGTATAAATATTTTC [CACACA_negctrl_site206],7.95 ± 0.76
10,AGCAAAACATAAAATAGTACACATTTAACAAAAAAA [XGTACX_site2921],7.97 ± 0.55
11,ATATAATATATTTTTGAACACACAATATATATATAT [CACACA_site9368],9.14 ± 0.3
12,TTTTGTTGAAAAGTAAGATATTCCAACATGTTTTTA [CACACA_negctrl_site391],7.38 ± 0.64
13,TAACTAATATATAAAACACACATCATAAAAATATAA [CACACA_site768],7.67 ± 0.61
14,ATATATGTGTATGTATGTACTTATATTTTTTTTTAT [XGTACX_site1733],7.74 ± 0.17
15,TCCGTTATATATGTGTGTACATATAATATATCCTCA [XGTACX_site2588],7.96 ± 0.47
16,GCAAATCAATTTTTTTTTAAAACTCATTTTTTCGTT [CACACA_negctrl_site1136],7.68 ± 0.78
17,AAAAATGAAAGTAAGACATGCATGGAATTTTTTTTA [TGCATGCA_site347],8.12 ± 0.88
18,TTTTTTTTTTATGAAAGTACATATGAAAAATACGAA [XGTACX_site3451],8.05 ± 0.071
19,ATTAAATAAAAAAACACACACATATATACCTATATA [CACACA_site5837],7.7 ± 0.49

row,Sequence,gcPBM binding intensity (ln)
1,CAAAACATTTTATCTACACACATATATAAATAAATA [CACACA_site3220],7.61 ± 0.54
2,AATAAAACATAATAATGTACTCAAAGGTTTAACTTG [XGTACX_site4711],7.87 ± 0.35
3,AAAATAAAAGAATAAAAATATGAAACTTTTTTAAAA [GTGCAC_negctrl_site348],7.15 ± 0.64
4,AACGTGTGGAGAATTATAAATGAGTAAAAAATATAT [XGTACX_negctrl_site562],8.16 ± 0.83
5,GGGGGGAGGGTGAATACACACGTAATAATCATAAAC [CACACA_site8502],10.3 ± 0.37
6,TTTGAATAAAAACAAAAAATTAAATTAAATTAAATA [CACACA_negctrl_site312],7.21 ± 0.54
7,TATTTATAATTATAATAATATATATATATATATATA [TGCATGCA_negctrl_site173],9.21 ± 0.28
8,ATTGTGTTAATAAAATGTACATTTTCTCTACATTAA [XGTACX_site2766],7.92 ± 0.66
9,ATATATATATATGTATGTACGTATGTATTTACTGCT [XGTACX_site3839],9.18 ± 0.16
10,TCCAATATATTTATGAGTACTTATAAATTATACGTT [XGTACX_site742],8.09 ± 0.4
11,TTCATACATATTTGAAGTACATTTAAAAATGTCCTT [XGTACX_site747],7.65 ± 0.17
12,GAAGTAATTTCATATACACACATATACATACATACA [CACACA_site6753],8.47 ± 0.79
13,GACCACTTTAGGATTTGTACACATATTATATATGCA [XGTACX_site6579],8.25 ± 0.59
14,TACACAAACAAACACACACACACACCCCCACAAAAA [CACACA_site2428],9.7 ± 0.16
15,TAGCCATTTTTATATTGTACTTATATAATCACATTT [XGTACX_site4407],7.7 ± 0.64
16,ATAAAAAAAAATAACACACAGACATAAGAATAAATA [CACACA_site4162],7.78 ± 0.67
17,ATATAAGAAAAGCACACACACACAAAAAAAAAAAAA [CACACA_site2827],8.48 ± 0.18
18,ATTAAAAAAAATATATATGTATAAAACAAGCAAAAT [XGTACX_negctrl_site474],8.04 ± 0.64
19,TATAATAATAAAAACACACACGTTGATTGTATTAGC [CACACA_site5336],7.62 ± 0.89

row,Sequence,gcPBM binding intensity (ln)
1,TATAATGATAATAATAGTACACATTAGAACGGGAGG [XGTACX_site2563],8.29 ± 0.41
2,CCTATTATTTCTAAAACACACAAAAATATAAAAGAA [CACACA_site2708],7.92 ± 0.59
3,ATAATATTATTTAAAAGTACTAACAAAAGAATATTA [XGTACX_site4989],7.78 ± 0.38
4,TCTTTTTTTTATTATATCATTGAAATGTTAAAACGA [XGTACX_negctrl_site473],7.67 ± 0.57
5,TTTTGATAGAAGTGTTCTAGGAATTCAACTGTAATA [GTGCAC_negctrl_site585],7.58 ± 0.76
6,TGAAAAAAAAAATACACACACGAGTTGTTATACATA [CACACA_site7486],7.44 ± 0.78
7,ATTAAAAAAATTGGCACACATAAAAATATATAAAAA [CACACA_site2748],8.21 ± 0.33
8,GTTTTTAATGTTTTGACATGCAATATTAAAAATAAT [TGCATGCA_site174],7.83 ± 0.67
9,AACAGATATGAATAGAAAAAAAAAAATGGCCCATAT [TGCATGCA_negctrl_site443],7.42 ± 0.74
10,CATACATACATACATACATGCATACATACATACATA [TGCATGCA_site218],8.95 ± 0.73
11,CATAATTTAAAAAAGGTGCAAAATGGATAATATATA [GTGCAC_site9657],11.1 ± 0.57
12,TTTTTTTTCATTTTATGTACACATAATTTAATATAT [XGTACX_site5768],8.16 ± 0.45
13,ATATATATATATATATGTACATATGTTTGTTTCCGC [XGTACX_site5167],9.44 ± 0.62
14,ATATACATATATATATGTACTTATTTATTTATTTAT [XGTACX_site2532],7.72 ± 0.4
15,AAAAAGTGACTCCTTACACACTTTACATAATTTAGG [CACACA_site8176],7.68 ± 0.62
16,GCAATTTTTTTTAAGAGTACTAATATATTATAGTGG [XGTACX_site7316],7.83 ± 0.16
17,TTTTTTTAATAGTGTGCACACAATATACAGAAAAAA [CACACA_site8399],10.1 ± 0.11
18,ATATATATATATATATGTACACATAAAAAGAAAGAA [XGTACX_site1603],9.56 ± 0.67
